# Assay results taken from PubChem BioAssay AID485294 (National Center for Advancing Translational Sciences (NCATS), 2010).
# The campaign covered roughly 370,000 compounds. About 150 (0.041%) were called active. This list was built around the results that the source calls inconclusive (neither active nor inactive); the mix of calls is not that of the screen. Calls follow the shape of the dose curve; as a rule, active = well fitted inhibition curve with a large enough effect; inconclusive = small, poorly fitted or top-dose-only effect; inactive = flat fitted curve, though single readings scatter. No potency is given beside an inconclusive call; the fits are too rough.
# Target: Beta-lactamase (Escherichia coli (strain K12)) (UniProt P00811)
# Assay: qHTS Inhibitors of AmpC Beta-Lactamase (assay with detergent); also: nearly all actives have a fitted effect of over 25% in size
# Conditions: AmpC hydrolysis of nitrocefin, absorbance 480 nm, 0.01% Triton; series mostly up to 114 µM
# Outline: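 AmpC (5.3 nM in the dispensed reagent) in 20 mM phosphate pH 7.0 with 0.01% (detergent screen) or 0.0001% Triton X-100 was preincubated with compounds for 15 min at room temperature. Nitrocefin was then added from an 800 uM solution, and hydrolysis was followed at 480 nm.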
# Potency is read from the fitted curve at half-maximal effect; tags tell the direction and shape of the fitted curve.
# UniProt P00811, sequence (P00811 whole entry, looked up): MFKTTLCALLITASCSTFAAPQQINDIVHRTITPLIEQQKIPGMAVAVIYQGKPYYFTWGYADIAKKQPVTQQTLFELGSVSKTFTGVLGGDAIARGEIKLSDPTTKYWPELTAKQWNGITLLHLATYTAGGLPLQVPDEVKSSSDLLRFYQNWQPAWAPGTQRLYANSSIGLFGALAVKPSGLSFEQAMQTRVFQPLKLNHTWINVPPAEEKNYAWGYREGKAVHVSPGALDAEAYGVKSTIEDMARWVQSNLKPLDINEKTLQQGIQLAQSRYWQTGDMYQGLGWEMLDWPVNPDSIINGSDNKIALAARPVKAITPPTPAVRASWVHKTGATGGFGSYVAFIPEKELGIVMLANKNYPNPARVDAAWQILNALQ
row,SMILES,Potency
1,C=CCNc1nc(Cl)ncc1F,"inconclusive [inhibitor, full curve]"
2,CC1(C)Cc2c(C#N)c(N3CCN(C(=O)c4ccccc4)CC3)nc(-c3ccco3)c2CS1,inactive
3,C=C(C)COc1ccc(-c2[nH]ncc2Oc2ccc(OC)cc2)c(O)c1,inactive
4,CS(=O)(=O)N1CCN(c2ccccc2NC(=O)Cc2ccccc2)CC1,"inconclusive [inhibitor, full curve, poor fit]"
5,C=CCN(CC=C)C(=O)c1ccc2nc(Cc3ccc(OC)c(OC)c3)oc2c1,inactive
6,Cc1cccc(Cn2c(SCc3ccc(C(=O)NC4CCCC4)cc3)nc3cccnc32)c1,inactive
7,Cc1ccc(NC(=O)c2cc(S(=O)(=O)N3CCCC3)cn2C)cc1C,inactive
8,CCOC(=O)c1ccc(NC(=O)CCCn2c(=O)c3cccn3c3cccnc32)cc1,inactive
9,O=C(Nc1cccnc1)c1ccc(Cl)c(S(=O)(=O)N2CCCC2)c1,"inconclusive [inhibitor, full curve]"
10,COc1ccc(S(=O)(=O)Nc2cc(C)ccn2)cc1OC,"inconclusive [inhibitor, partial curve]"
11,Cc1nc2ccc(NC(=O)Cc3c(F)cccc3Cl)cc2s1,"inconclusive [inhibitor, single point]"
12,C=CCn1c(O)c(C(CC)=NCc2cccnc2)c(=O)[nH]c1=O,"inconclusive [inhibitor, full curve]"
13,Cc1ccc(NCc2ccccc2F)cc1,"inconclusive [inhibitor, partial curve, poor fit]"
14,COc1cc(O)c(CCC(=O)c2cc(OC)c(OC)c(OC)c2)c(OC)c1,"inconclusive [inhibitor, partial curve, poor fit]"
15,CCOc1cc(/C=N\O)cc(Cl)c1OCC,"inconclusive [inhibitor, single point]"
16,NC(=O)c1cc[n+](CC2=C(C(=O)O)N3C(=O)[C@@H](NC(=O)C(c4ccccc4)S(=O)(=O)[O-])[C@H]3SC2)cc1 (some centres undefined),inactive
17,O=C(Cc1ccccc1)NCC(=O)OCC(=O)c1ccc(Cl)c([N+](=O)[O-])c1,"inconclusive [inhibitor, partial curve]"
18,CCN(CC)CCCNC(=O)c1ccc(Cn2c(=O)[nH]c3cc(OC)c(OC)cc3c2=O)cc1,"inconclusive [inhibitor, single point]"
19,CC(C)CCNc1nnnc2c1sc1nc(N3CCOCC3)c3c(c12)CC(C)(C)SC3,"inconclusive [inhibitor, full curve, poor fit]"
20,CN1CCN(NC(=O)c2ccc(Cl)s2)CC1,"inconclusive [inhibitor, single point]"
21,FC(F)Sc1ccc(NC(=S)N2CCN(c3ccccn3)CC2)cc1,"inconclusive [inhibitor, full curve, poor fit]"
22,Cc1ccc(C(=O)OCc2nc3ccsc3c(=O)[nH]2)o1,"inconclusive [inhibitor, partial curve]"

row,SMILES,Potency
1,COc1ncnc2c1sc1nc(-c3ccccc3)c3c(c12)CCCC3,"inconclusive [inhibitor, single point]"
2,O=C(CSc1ccc2ccccc2n1)N/N=C/c1ccc(O)cc1,"inconclusive [inhibitor, partial curve, poor fit]"
3,CCOC(=O)c1c(NC(=O)c2ccco2)sc2c1CCCC2,inactive
4,Cc1ccc(C(C(=O)NC2CCCC2)N(C(=O)CNC(=O)c2cccs2)c2cccnc2)o1 (centres undefined),inactive
5,Cc1ccc(NC(=O)CSCC(=O)N(CCC(C)C)c2c(N)n(Cc3ccccc3)c(=O)[nH]c2=O)cc1,"inconclusive [inhibitor, single point]"
6,Cc1onc(-c2ccccc2)c1-c1csc(N/N=C/c2ccccc2)n1,inactive
7,CCOC(=O)c1sc(NC(=O)c2ccc(S(=O)(=O)N(CC)CC)cc2)nc1C,"inconclusive [inhibitor, full curve, poor fit]"
8,O=C(CNCC1CCCCC1)Nc1ccccc1N1CCCCC1,"inconclusive [inhibitor, full curve]"
9,Cc1cc(C)cc(-n2c(C)cc(/C=C3\C(=O)NC(=O)N(C)C3=O)c2C)c1,"inconclusive [inhibitor, partial curve]"
10,COc1ccc(CCNC(=O)C2Cc3ccccc3C(=O)O2)cc1 (centres undefined),inactive
11,CS(=O)(=O)Nc1ccc([N+](=O)[O-])cc1Oc1ccccc1,"inconclusive [inhibitor, full curve]"
12,CCOc1ccc(S(=O)(=O)NC2=NCCCCC2)cc1,"inconclusive [inhibitor, full curve, poor fit]"
13,Cc1ccccc1N1C(=O)C2ON(c3ccccc3)C(c3ccncc3)C2C1=O (centres undefined),"inconclusive [inhibitor, full curve, poor fit]"
14,COc1cc(C)nc(-n2nc(C)cc2OC)n1,"inconclusive [inhibitor, full curve, poor fit]"
15,O=C(Cn1cccc1C(=O)c1ccccc1)NCc1ccccc1Cl,"inconclusive [inhibitor, partial curve, poor fit]"
16,CCCCn1c(N)c(N(CC(C)C)C(=O)c2ccncc2)c(=O)[nH]c1=O,"inconclusive [inhibitor, partial curve]"
17,CCc1ccc(-n2c(=O)c3sc4ccccc4c3n(CC(=O)NCc3ccccc3)c2=O)cc1,inactive
18,COC(=O)c1cc2sccc2n1CC(=O)Nc1ccc(OC)c(OC)c1,inactive
19,O=C(Nc1nnc(-c2ccccc2Cl)s1)C1CCN(S(=O)(=O)c2ccc(Cl)cc2)CC1,"inconclusive [inhibitor, full curve]"
20,COc1ccc(OC)c(NC(=O)c2[nH]c(C)c(C(C)=O)c2C)c1,"inconclusive [inhibitor, full curve]"
21,Cc1ccc(N2CN(Cc3ccco3)CNC2=S)c(C)c1,inactive
22,CCN(C(=O)CSc1nnc2c3ccccc3n(CC)c2n1)C1CCS(=O)(=O)C1 (centres undefined),inactive
